According to the supplement of paper PMC10126150:
Sequences with one replicate were seen in a single cluster, so their values are uncertain.

Tested on: ATP
Experiment: switch fluorescence ratio, 500 uM ATP over buffer (Cy3 cluster intensity, sum of 5 cycles each) (fold (ratio)); higher = stronger signal-on switching upon ATP binding; sequences stand for … in TCGTCGGCAGCGTCAGATGTGTATAAGAGACAGTTTTTTTTTTTTTTTTTTTTTTTTT…TC
Conditions: aptamer strand: ATP DNA aptamer (quencher-CACCTGGGGGAGTATTGCGGAGGAAGG + anchor), 100 nM annealed; ATP concentration: 500 uM; one replicate
Outline: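 The quencher-labelled ATP aptamer, at 100 nM, was annealed to Cy3-labelled switching-strand clusters on a modified Illumina MiSeq flow-cell. The clusters were imaged in selection buffer, then after 15 min with 500 uM ATP at 22 °C, and this buffer/ATP cycle ran five times with NaOH stripping and re-annealing between runs. Per-cluster fluorescence ratios, summed target-cycle over summed buffer-cycle Cy3 intensity, were averaged per switch-domain sequence. Clusters outside 100-1000 RFU were excluded.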
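Also: ATP exposure 15 min at 22 °C before imaging.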

Row | Sequence | switch fluorescence ratio
1 | GCGTTAAGAA | 0.998
2 | GGCCACTCCT | 1.03
3 | CCCCTTGGAC | 1.05
4 | TGGGTAAAAC | 1.02
5 | CCGCACTTA | 3.8
6 | AGACTTTATC | 1.02
7 | TGCTTTGTAT | 1.01
8 | GGCTCCTAAG | 0.981
9 | CCCCTTGGTT | 1.36
10 | GTATGGGTTG | 1.03
11 | TTAATCCAC | 1.08
12 | GTGTCATTTG | 0.989
13 | AACCAGTGGT | 1.04
14 | CACCGAACCT | 1.15
15 | TCATACACGA | 1.23
16 | TTGGGCGCCG | 0.999
17 | TTTAGTTATC | 1.03
18 | CGACTAATAA | 1.44
19 | TTATAGTCT | 0.961
20 | AGTAAATCAG | 1
21 | TTTCTATCTG | 0.993
22 | GTGTTGTGCC | 0.948
23 | TCTGCAGAT | 1.05
24 | GAATCGTTGG | 0.973
25 | GTGAGTGTTA | 0.973
26 | ACCCGCAGGT | 1.21

Row | Sequence | switch fluorescence ratio
27 | AGTGCTTTGG | 1.03
28 | GCTCCGGACG | 1.46
29 | TGAGACTTGG | 0.886
30 | TTATAGTAGA | 1.03
31 | ATAGATGACC | 1.04
32 | GAGGACATTT | 0.973
33 | GCGTGAGTCC | 1.01
34 | CCCTTTTAGG | 0.964
35 | GGTGTAACCC | 0.982
36 | GCATCATCCT | 1.03
37 | CCCGGT | 1
38 | ATCCGGGAGA | 1.08
39 | ACGGTGACTG | 1.06
40 | TTATAAATAG | 0.981
41 | CAGCTGACC | 1.07
42 | ACAGGCTCTT | 1.05
43 | AACCCGGGGG | 1.03
44 | ACGTTTGGAC | 1.05
45 | ATACGCGTTT | 1.05
46 | ATTGACAGA | 0.979
47 | AAAGGGGAT | 0.996
48 | GCCTGAAGCG | 0.99
49 | TTTCACCAGC | 1.01
50 | CGTACTGGTG | 1.01
51 | GGAGACCTGC | 0.924
52 | AAAGCGTCAC | 1.14

Row | Sequence | switch fluorescence ratio
53 | ACTATTTCAG | 1.03
54 | TTCTTTCTAA | 0.957
55 | GCATGGAAAG | 0.946
56 | CTCAGGCAGA | 1.28
57 | GCCCGCGAAT | 1.82
58 | GACGACACAC | 2.33
59 | CGAGAAGTCG | 0.977
60 | GATTTATAGA | 1.01
61 | ATTGAGCAG | 1.02
62 | CGTTAACGAG | 0.988
63 | TGTCATCGTA | 0.96
64 | CGGGAAAAGC | 0.98
65 | GCACTCGGGC | 1.05
66 | ATAATTTTCG | 1.08
67 | ATTTCGGATC | 1.05
68 | AAGGCGGAAG | 0.991
69 | AGCCTCTTTA | 0.977
70 | ACATATTGTA | 1.06
71 | GACTGTTTGG | 1.01
72 | ACTTCGTAAC | 1.22
73 | AAAGCTAATC | 1.15
74 | TCGGATGG | 1.01
75 | GATCAATGTG | 1
76 | CTGGGTTCCC | 0.989
77 | AGCTGACACT | 1.03
